Results as given in the supplement of paper PMC4967469.

Legend:
Assay in all cases: Viability of human cancer cell lines after 72 h of drug (GDSC screen)
NSC-207895 = compound: CN1CCN(c2ccc([N+](=O)[O-])c3no[n+]([O-])c23)CC1 [NSC-207895]; details: top dose 20 µM; top dose inferred
Experimental: (§1)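 Human cancer cell lines in 384-well plates, medium with 10% serum, drug for 72 h over a 256-fold dose range (nine 2-fold or five 4-fold steps up to the top dose). Adherent lines were fixed and stained with the nucleic acid dye Syto60, suspension lines read with resazurin; signal relative to control wells, capped at 0 and 100%. One two-parameter sigmoid per drug and line, fitted in a mixed model over all curves with the slope shared within a line.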

Docetaxel = compound: CC(=O)O[C@@]12CO[C@@H]1C[C@H](O)[C@@]1(C)C(=O)[C@H](O)C3=C(C)[C@@H](OC(=O)[C@H](O)[C@@H](NC(=O)OC(C)(C)C)c4ccccc4)C[C@@](O)([C@@H](OC(=O)c4ccccc4)[C@H]21)C3(C)C [Docetaxel]; details: top dose 0.0125 µM
Experimental: as §1

CGP-60474 = compound: OCCCNc1cc(-c2ccnc(Nc3cccc(Cl)c3)n2)ccn1 [CGP-60474]; details: top dose 0.256 µM; top dose inferred
Experimental: as §1

JNK Inhibitor VIII = compound: CCOc1nc(NC(=O)Cc2cc(OC)ccc2OC)cc(N)c1C#N [JNK Inhibitor VIII]; details: top dose 10 µM; top dose inferred
Experimental: as §1

JQ1 = compound: Cc1sc2c(c1C)C(c1ccc(Cl)cc1)=N[C@@H](CC(=O)OC(C)(C)C)c1nnc(C)n1-2 [JQ1]
Experimental: as §1

AMG-706 = compound: CC1(C)CNc2cc(NC(=O)c3cccnc3NCc3ccncc3)ccc21 [AMG-706]; details: top dose 2 µM; top dose inferred
Experimental: as §1

Belinostat = compound: O=C(/C=C/c1cccc(S(=O)(=O)Nc2ccccc2)c1)NO [Belinostat]; details: top dose 20 µM; top dose inferred
Experimental: as §1

OSI-906 = compound: C[C@]1(O)C[C@@H](c2nc(-c3ccc4ccc(-c5ccccc5)nc4c3)c3c(N)nccn32)C1 [OSI-906]; details: top dose 2.56 µM; top dose inferred
Experimental: as §1

Cyclopamine = compound: CC1=C2C[C@H]3[C@@H](CC=C4C[C@@H](O)CC[C@@]43C)[C@@H]2CC[C@]12O[C@@H]1C[C@H](C)CN[C@H]1[C@H]2C [Cyclopamine]; details: top dose 16 µM; top dose inferred
Experimental: as §1

SB-715992 = compound: Cc1ccc(C(=O)N(CCCN)[C@@H](c2nc3cc(Cl)ccc3c(=O)n2Cc2ccccc2)C(C)C)cc1 [SB-715992]; details: top dose 0.128 µM; top dose inferred
Experimental: as §1

FTI-277 = compound: COC(=O)[C@H](CCSC)NC(=O)c1ccc(NC[C@@H](N)CS)cc1-c1ccccc1 [FTI-277]; details: top dose 1.024 µM; top dose inferred
Experimental: as §1

JNJ-26854165 = compound: c1ccc2c(CCNc3ccc(Nc4ccncc4)cc3)c[nH]c2c1 [JNJ-26854165]; details: top dose 10 µM
Experimental: as §1

YM155 = compound: COCC[n+]1c2c(n(Cc3cnccn3)c1C)C(=O)c1ccccc1C2=O [YM155]; details: top dose 5.12 µM
Experimental: as §1

[1] = top dose 1 µM, screen: GDSC drug entry 1218, top dose inferred
[2] = top dose 2.56 µM, screen: GDSC drug entry 163

Cell Line	AUC (NSC-207895)	IC50 (NSC-207895)	AUC (Docetaxel)	IC50 (Docetaxel)	AUC (CGP-60474)	IC50 (CGP-60474)	AUC (JNK Inhibitor VIII)	IC50 (JNK Inhibitor VIII)	AUC (JQ1; [1])	IC50 (JQ1; [1])	AUC (JQ1; [2])	IC50 (JQ1; [2])	AUC (AMG-706)	IC50 (AMG-706)	AUC (Belinostat)	IC50 (Belinostat)	AUC (OSI-906)	IC50 (OSI-906)	AUC (Cyclopamine)	IC50 (Cyclopamine)	AUC (SB-715992)	IC50 (SB-715992)	AUC (FTI-277)	IC50 (FTI-277)	AUC (JNJ-26854165)	IC50 (JNJ-26854165)	AUC (YM155)	IC50 (YM155)
MMAC-SF (melanoma, adherent)	0.864	18900 nM	0.836	8.83 nM	0.738	79.5 nM	0.947	> 10000 nM	0.985	> 1000 nM	0.831	1720 nM	0.985	> 2000 nM	0.658	3510 nM	0.901	> 2560 nM	0.987	> 16000 nM	0.956	> 128 nM	0.985	> 1020 nM				
MOLT-4 (lymphoblastic leukaemia, suspension)	0.944	> 20000 nM	0.858	7.39 nM	0.72	58.3 nM	0.983	> 10000 nM					0.987	> 2000 nM	0.14	131 nM	0.97	> 2560 nM	0.992	> 16000 nM	0.681	23 nM	0.983	> 1020 nM	0.958	> 10000 nM	0.015	< 20 nM
NAMALWA (Burkitt lymphoma, suspension)	0.868	13600 nM	0.894	10.8 nM	0.633	34.9 nM	0.991	> 10000 nM					0.991	> 2000 nM	0.076	< 78.1 nM	0.991	> 2560 nM	0.939	> 16000 nM	0.6	14.3 nM	0.989	> 1020 nM	0.953	> 10000 nM	0.016	< 20 nM
NB6 (neuroblastoma, adherent)	0.848	> 20000 nM	0.931	> 12.5 nM	0.897	> 256 nM	0.984	> 10000 nM	0.98	> 1000 nM	0.8	1580 nM	0.98	> 2000 nM			0.913	> 2560 nM	0.983	> 16000 nM	0.794	74.6 nM	0.96	> 1020 nM	0.958	> 10000 nM	0.072	< 20 nM
NCI-H69 (small cell lung carcinoma, suspension)	0.959	> 20000 nM	0.911	> 12.5 nM	0.909	> 256 nM	0.983	> 10000 nM	0.888	> 1000 nM	0.728	777 nM	0.985	> 2000 nM			0.983	> 2560 nM	0.94	> 16000 nM	0.635	19.8 nM	0.976	> 1020 nM	0.977	> 10000 nM		
NCI-H2081 (small cell lung carcinoma, suspension)	0.915	> 20000 nM	0.966	> 12.5 nM	0.931	> 256 nM	0.987	> 10000 nM	0.975	> 1000 nM	0.892	> 2560 nM	0.987	> 2000 nM			0.94	> 2560 nM	0.989	> 16000 nM	0.862	120 nM	0.987	> 1020 nM	0.981	> 10000 nM	0.058	< 20 nM
SK-MEL-1 (melanoma, suspension)	0.978	> 20000 nM	0.993	> 12.5 nM	0.972	> 256 nM	0.991	> 10000 nM	0.979	> 1000 nM	0.993	> 2560 nM	0.992	> 2000 nM			0.993	> 2560 nM	0.983	> 16000 nM	0.991	> 128 nM	0.993	> 1020 nM	0.897	9470 nM	0.31	102 nM
SK-PN-DW (Ewing sarcoma, adherent)	0.835	13900 nM	0.796	6.12 nM	0.781	111 nM	0.98	> 10000 nM	0.977	> 1000 nM	0.858	2230 nM	0.965	> 2000 nM	0.365	522 nM	0.791	1190 nM	0.958	> 16000 nM	0.76	46.8 nM	0.957	> 1020 nM			0.029	< 20 nM
SW684 (fibrosarcoma, adherent)	0.981	> 20000 nM	0.768	6.94 nM	0.981	> 256 nM	0.978	> 10000 nM	0.98	> 1000 nM	0.8	1970 nM	0.983	> 2000 nM	0.963	> 20000 nM	0.983	> 2560 nM	0.983	> 16000 nM	0.975	> 128 nM	0.977	> 1020 nM			0.76	2630 nM
U-87-MG (glioma, adherent)	0.984	> 20000 nM	0.782	6.21 nM	0.933	> 256 nM	0.968	> 10000 nM	0.876	> 1000 nM	0.904	> 2560 nM	0.964	> 2000 nM	0.709	5440 nM	0.985	> 2560 nM	0.984	> 16000 nM	0.981	> 128 nM	0.978	> 1020 nM	0.841	8790 nM		

A lower IC50 marks a more sensitive line; a limit (>, <) means that the fit lies beyond the doses tested. AUC is the area under the same curve over the 256-fold range up to the top dose, as a fraction; values near 1 show little effect. For part of these data: Any top dose called inferred is not printed in the source and was worked back from the curve model. For part of these data: An entry number marks a drug with two screens in the source, which often give different values.
